From article PMC4336329 (PLoS ONE, 2015)
Out of some 310,000 compounds screened, about 2,200 (0.71%) showed an effect of 50% or more. The effect is printed as a negative number. The list shows a part of the results.

What follows are compounds tested against human ether-à-go-go-related gene (hERG) potassium channel (human, UniProt Q12809) (assay: primary screen, population patch clamp on CHO cells stably expressing hERG).
human ether-à-go-go-related gene (hERG) potassium channel, sequence (Q12809 whole entry, looked up): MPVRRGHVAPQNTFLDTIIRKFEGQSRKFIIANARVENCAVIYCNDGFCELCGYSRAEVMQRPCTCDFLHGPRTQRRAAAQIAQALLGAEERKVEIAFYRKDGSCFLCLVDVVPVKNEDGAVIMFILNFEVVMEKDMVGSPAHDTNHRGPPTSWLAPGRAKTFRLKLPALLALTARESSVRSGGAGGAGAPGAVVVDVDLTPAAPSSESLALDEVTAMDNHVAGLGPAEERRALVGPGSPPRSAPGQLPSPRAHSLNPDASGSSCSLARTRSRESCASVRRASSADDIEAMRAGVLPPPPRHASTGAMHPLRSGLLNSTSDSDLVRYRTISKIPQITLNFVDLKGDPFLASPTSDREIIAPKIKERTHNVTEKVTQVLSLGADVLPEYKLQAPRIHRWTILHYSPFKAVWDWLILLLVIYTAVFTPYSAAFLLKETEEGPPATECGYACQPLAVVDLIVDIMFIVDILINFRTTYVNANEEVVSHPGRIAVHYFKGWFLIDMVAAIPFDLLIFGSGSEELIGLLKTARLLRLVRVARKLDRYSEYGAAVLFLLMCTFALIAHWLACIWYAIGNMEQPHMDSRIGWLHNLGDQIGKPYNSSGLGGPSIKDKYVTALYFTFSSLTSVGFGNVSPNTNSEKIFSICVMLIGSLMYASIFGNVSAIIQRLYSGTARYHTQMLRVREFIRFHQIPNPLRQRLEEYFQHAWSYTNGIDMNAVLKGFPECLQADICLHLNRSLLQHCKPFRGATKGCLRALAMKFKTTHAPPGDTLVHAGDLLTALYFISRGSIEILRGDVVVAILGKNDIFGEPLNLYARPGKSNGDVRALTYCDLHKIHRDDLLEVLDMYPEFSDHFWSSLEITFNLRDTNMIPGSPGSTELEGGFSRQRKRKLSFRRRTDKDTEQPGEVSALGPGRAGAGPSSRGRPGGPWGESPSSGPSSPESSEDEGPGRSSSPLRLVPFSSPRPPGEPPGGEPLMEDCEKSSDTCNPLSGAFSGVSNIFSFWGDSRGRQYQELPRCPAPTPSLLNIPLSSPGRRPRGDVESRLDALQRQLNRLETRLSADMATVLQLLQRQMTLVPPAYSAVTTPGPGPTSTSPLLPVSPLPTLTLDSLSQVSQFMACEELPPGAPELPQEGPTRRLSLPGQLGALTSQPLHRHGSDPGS

| Structure (SMILES) | hERG current change (%, negative = inhibition) at 1uM |
| --- | --- |
| CCOC(=O)c1[nH]c2ccc(OC)cc2c1NC(=O)CN1CCC2(CC1)OCCO2 | 14% |
| CCN(CC)CCNC(=O)CCc1n[nH]c(=O)c2ccccc12 | -1.65% |
| CC(C)C(=O)Nc1ncc(Cc2ccccc2Cl)s1 | 10.9% |
| Cc1cccc(-c2nc(CS(=O)CC(=O)NCc3ccco3)c(C)o2)c1 (stereo not drawn) | 9.61% |
| O=C(NCC(=O)N(CC1CCCO1)C(C(=O)NC1CCCCC1)c1ccccc1)c1ccco1 (stereo not drawn) | 7.75% |
| Cn1c(=O)c(-c2cc(Br)ccc2N)nc2ccccc21 | 6.48% |
| c1ccc(Cc2nn3c(COc4ccccc4)nnc3s2)cc1 | 3.84% |
| CN(c1c(C#N)c(C(F)(F)F)nn1C)N(S(C)(=O)=O)S(C)(=O)=O | 13.2% |
| Cc1nn(Cc2ccc(C(=O)NC(C)(C)C)o2)c(C)c1Br | 11.1% |
| CC1(C)C(c2ccccc2)=NC(c2ccc(Br)cc2)N1O (stereo not drawn) | -3.69% |
| CC(=O)Nc1ccc(S(=O)(=O)NCCC(=O)Nc2ccc(C)c(F)c2)cc1 | 2.99% |
| O=C(c1ccco1)N1N=C(c2ccc(Cl)cc2)CC1(O)C(F)(F)F (stereo not drawn) | 9.8% |
| CCOC(=O)C1=C(C(F)(F)F)Nc2ncnn2C1c1cc(OC)ccc1OC (stereo not drawn) | 8.11% |
| Cc1ccc(Nc2ncc3c(n2)CC(C)(C)CC3=O)cc1 | 9.35% |
| Cn1c(NC(=O)c2ccco2)c(-c2ccccc2Cl)c(=O)c2ccccc21 | -6.42% |
| COc1ccc(CCC(=O)Nc2cccc(S(=O)(=O)N3CCCCCC3)c2)cc1OC | 4.98% |
| NC(=O)c1ccc(NC(=O)COC(=O)CCCN2C(=O)c3cccc4cccc(c34)C2=O)cc1 | 10.5% |
| O=C1Oc2ccccc2C(=O)/C1=C/N1CCN(c2ccccc2F)CC1 | 7.34% |
| Cc1cccc(C(=O)NCCNC(=O)c2cccc(C)c2)c1 | 3.44% |
| COCc1cccc(C2=CC(=O)C[C@H](c3ccc(F)cc3)C2)c1 | 7.01% |
| CCC(C)NC(=O)C1CCC(CNS(=O)(=O)c2ccc3c(c2)CC(C)N3C(C)=O)CC1 (stereo not drawn) | 10.8% |
| O=C(Nc1ccccc1)c1ccc(N2CCN(c3ccccn3)CC2)c(S(=O)(=O)N2CCOCC2)c1 | 9.42% |
| CCC(=O)N1CCC2(CC1)Oc1ccc(F)cc1C(=O)C21CC(c2cccnc2)=NO1 (stereo not drawn) | 0.144% |
| CCCCN(C)C(=O)Cn1nc(-c2ccc(Cl)cc2)ccc1=O | 1.01% |
